Data from US20220220204A1 (published 2022).
Like-named read-outs stand apart in the source and are kept apart here.

T1: LAG-3 expressed on CHO-K1 cells (UniProt P18627 23-525)
T1 chain: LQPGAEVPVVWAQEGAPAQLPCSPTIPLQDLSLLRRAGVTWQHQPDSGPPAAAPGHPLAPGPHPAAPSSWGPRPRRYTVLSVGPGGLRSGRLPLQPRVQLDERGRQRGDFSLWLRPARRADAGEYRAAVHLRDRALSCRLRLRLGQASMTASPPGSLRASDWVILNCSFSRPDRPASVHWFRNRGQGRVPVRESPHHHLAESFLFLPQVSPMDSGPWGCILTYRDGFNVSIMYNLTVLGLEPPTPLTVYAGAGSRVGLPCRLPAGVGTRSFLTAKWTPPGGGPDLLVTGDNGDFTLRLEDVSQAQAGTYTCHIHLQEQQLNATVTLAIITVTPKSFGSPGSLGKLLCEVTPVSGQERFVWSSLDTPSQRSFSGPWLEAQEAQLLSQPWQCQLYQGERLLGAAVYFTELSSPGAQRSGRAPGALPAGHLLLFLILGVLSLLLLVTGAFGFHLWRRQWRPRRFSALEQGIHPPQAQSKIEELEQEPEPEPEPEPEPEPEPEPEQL


Experiments:
Assay in all cases: FACS binding
[1] = molecular target: T1, LAG-3 expressed on CHO-K1 cells
[2] = molecular target: T2, PD-L1 expressed on CHO-K1 cells (UniProt Q9NZQ7)
[3] = molecular target: T1, LAG-3 expressed on CHO-K1 cells
[4] = molecular target: T2, PD-L1 expressed on CHO-K1 cells; remark: listed apart in the source
T2 sequence (Q9NZQ7 19-290): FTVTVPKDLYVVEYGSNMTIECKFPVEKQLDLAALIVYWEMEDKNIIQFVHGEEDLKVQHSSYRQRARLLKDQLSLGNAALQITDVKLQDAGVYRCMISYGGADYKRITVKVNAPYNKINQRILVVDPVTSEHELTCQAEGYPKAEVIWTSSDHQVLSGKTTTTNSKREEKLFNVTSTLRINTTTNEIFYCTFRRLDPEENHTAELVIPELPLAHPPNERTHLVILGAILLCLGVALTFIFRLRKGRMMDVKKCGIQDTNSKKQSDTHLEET

Row | Binder | EC50 [1] [nM] | EC50 [2] [nM] | EC50 [3] [nM] | EC50 [4] [nM]
1 | mPDL1HCv1-G9-sLAG3 (bispecific antibody) heavy: EVQLVQSGAEVKKPGASVKVSCKASGYIFTGYGITWVRQAPGQGLEWMGEIFPRRVQTYYSEKFKGRVTMTTDTSTSTAYMELRSLRSDDTAVYYCARDYDPYFALDYWGQGTTVTVSSASTKGPSVFPLAPSSKSTSGGTAALGCLVKDYFPEPVTVSWNSGALTSGVHTFPAVLQSSGLYSLSSVVTVPSSSLGTQTYICNVNHKPSNTKVDKKV[letters of human IgG1 Fc with changes not shown]GGGGSGGGSEVQLVESGGGLVQPGGSLRLSCAASGYTVSSYCMGWFRQAPGKGREGVSAIDSDGSVSYADSVKGRFTISKDNSKNTLYLQMNSLRAEDTAVYFCAADLCWVDQDQGEYNTWGQGTLVTVSS light: DIQMTQSPSSLSASVGDRVTITCRASQDVSTAVDWYQQKPGKAPKLLIYSASYRYTGVPDRFSGSGSGTDFTFTISSLQPEDIATYYCQQHYSIPFTFGQGTKLEIKRTVAAPSVFIFPPSDEQLKSGTASVVCLLNNFYPREAKVQWKVDNALQSGNSQESVTEQDSKDSTYSLSSTLTLSKADYEKHKVYACEVTHQGLSSPVTKSFNRGEC | 0.4 | 0.202 |  | 
2 | mPDL1HCv1-Ea-sLAG3 (bispecific antibody) heavy: EVQLVQSGAEVKKPGASVKVSCKASGYIFTGYGITWVRQAPGQGLEWMGEIFPRRVQTYYSEKFKGRVTMTTDTSTSTAYMELRSLRSDDTAVYYCARDYDPYFALDYWGQGTTVTVSSASTKGPSVFPLAPSSKSTSGGTAALGCLVKDYFPEPVTVSWNSGALTSGVHTFPAVLQSSGLYSLSSVVTVPSSSLGTQTYICNVNHKPSNTKVDKKV[letters of human IgG1 Fc with changes not shown]EPKSSDKGHGGPPGPEVQLVESGGGLVQPGGSLRLSCAASGYTVSSYCMGWFRQAPGKGREGVSAIDSDGSVSYADSVKGRFTISKDNSKNTLYLQMNSLRAEDTAVYFCAADLCWVDQDQGEYNTWGQGTLVTVSS light: DIQMTQSPSSLSASVGDRVTITCRASQDVSTAVDWYQQKPGKAPKLLIYSASYRYTGVPDRFSGSGSGTDFTFTISSLQPEDIATYYCQQHYSIPFTFGQGTKLEIKRTVAAPSVFIFPPSDEQLKSGTASVVCLLNNFYPREAKVQWKVDNALQSGNSQESVTEQDSKDSTYSLSSTLTLSKADYEKHKVYACEVTHQGLSSPVTKSFNRGEC | 0.538 | 0.197 |  | 
3 | mPDL1LCv1-E4-sLAG3-HCv1 (bispecific antibody) light: DIQMTQSPSSLSASVGDRVTITCRASQDVSTAVDWYQQKPGKAPKLLIYSASYRYTGVPDRFSGSGSGTDFTFTISSLQPEDIATYYCQQHYSIPFTFGQGTKLEIKRTVAAPSVFIFPPSDEQLKSGTASVVCLLNNFYPREAKVQWKVDNALQSGNSQESVTEQDSKDSTYSLSSTLTLSKADYEKHKVYACEVTHQGLSSPVTKSFNRGECESKYGPPSPPSPEVQLVESGGGLVQPGGSLRLSCAASGYTVSSYCMGWFRQAPGKGREGVSAIDSDGSVSYADSVKGRFTISKDNSKNTLYLQMNSLRAEDTAVYFCAADLCWVDQDQGEYNTWGQGTLVTVSS heavy: EVQLVQSGAEVKKPGASVKVSCKASGYIFTGYGITWVRQAPGQGLEWMGEIFPRRVQTYYSEKFKGRVTMTTDTSTSTAYMELRSLRSDDTAVYYCARDYDPYFALDYWGQGTTVTVSSASTKGPSVFPLAPSSKSTSGGTAALGCLVKDYFPEPVTVSWNSGALTSGVHTFPAVLQSSGLYSLSSVVTVPSSSLGTQTYICNVNHKPSNTKVDKKV[letters of human IgG1 Fc with changes not shown] | 0.558 | 0.224 |  | 
4 | mPDL1LCv1-E-sLAG3-HCv1 (bispecific antibody) light: DIQMTQSPSSLSASVGDRVTITCRASQDVSTAVDWYQQKPGKAPKLLIYSASYRYTGVPDRFSGSGSGTDFTFTISSLQPEDIATYYCQQHYSIPFTFGQGTKLEIKRTVAAPSVFIFPPSDEQLKSGTASVVCLLNNFYPREAKVQWKVDNALQSGNSQESVTEQDSKDSTYSLSSTLTLSKADYEKHKVYACEVTHQGLSSPVTKSFNRGECEPKSSDKTHTSPPSPEVQLVESGGGLVQPGGSLRLSCAASGYTVSSYCMGWFRQAPGKGREGVSAIDSDGSVSYADSVKGRFTISKDNSKNTLYLQMNSLRAEDTAVYFCAADLCWVDQDQGEYNTWGQGTLVTVSS heavy: EVQLVQSGAEVKKPGASVKVSCKASGYIFTGYGITWVRQAPGQGLEWMGEIFPRRVQTYYSEKFKGRVTMTTDTSTSTAYMELRSLRSDDTAVYYCARDYDPYFALDYWGQGTTVTVSSASTKGPSVFPLAPSSKSTSGGTAALGCLVKDYFPEPVTVSWNSGALTSGVHTFPAVLQSSGLYSLSSVVTVPSSSLGTQTYICNVNHKPSNTKVDKKV[letters of human IgG1 Fc with changes not shown] | 0.561 | 0.239 | 0.0437 | 0.114

Continued by falling EC50 [1], values first:

Row | EC50 [1] [nM] | EC50 [2] [nM] | EC50 [3] [nM] | EC50 [4] [nM] | Binder
5 | 0.399 | 0.189 |  |  | mPDL1HCv1-E4-sLAG3 (bispecific antibody) heavy: EVQLVQSGAEVKKPGASVKVSCKASGYIFTGYGITWVRQAPGQGLEWMGEIFPRRVQTYYSEKFKGRVTMTTDTSTSTAYMELRSLRSDDTAVYYCARDYDPYFALDYWGQGTTVTVSSASTKGPSVFPLAPSSKSTSGGTAALGCLVKDYFPEPVTVSWNSGALTSGVHTFPAVLQSSGLYSLSSVVTVPSSSLGTQTYICNVNHKPSNTKVDKKV[letters of human IgG1 Fc with changes not shown]ESKYGPPSPPSPEVQLVESGGGLVQPGGSLRLSCAASGYTVSSYCMGWFRQAPGKGREGVSAIDSDGSVSYADSVKGRFTISKDNSKNTLYLQMNSLRAEDTAVYFCAADLCWVDQDQGEYNTWGQGTLVTVSS light: DIQMTQSPSSLSASVGDRVTITCRASQDVSTAVDWYQQKPGKAPKLLIYSASYRYTGVPDRFSGSGSGTDFTFTISSLQPEDIATYYCQQHYSIPFTFGQGTKLEIKRTVAAPSVFIFPPSDEQLKSGTASVVCLLNNFYPREAKVQWKVDNALQSGNSQESVTEQDSKDSTYSLSSTLTLSKADYEKHKVYACEVTHQGLSSPVTKSFNRGEC
6 | 0.382 | 0.187 |  |  | mPDL1HCv1-G15-sLAG3 (bispecific antibody) heavy: EVQLVQSGAEVKKPGASVKVSCKASGYIFTGYGITWVRQAPGQGLEWMGEIFPRRVQTYYSEKFKGRVTMTTDTSTSTAYMELRSLRSDDTAVYYCARDYDPYFALDYWGQGTTVTVSSASTKGPSVFPLAPSSKSTSGGTAALGCLVKDYFPEPVTVSWNSGALTSGVHTFPAVLQSSGLYSLSSVVTVPSSSLGTQTYICNVNHKPSNTKVDKKV[letters of human IgG1 Fc with changes not shown]GGGGSGGGGSGGGGSEVQLVESGGGLVQPGGSLRLSCAASGYTVSSYCMGWFRQAPGKGREGVSAIDSDGSVSYADSVKGRFTISKDNSKNTLYLQMNSLRAEDTAVYFCAADLCWVDQDQGEYNTWGQGTLVTVSS light: DIQMTQSPSSLSASVGDRVTITCRASQDVSTAVDWYQQKPGKAPKLLIYSASYRYTGVPDRFSGSGSGTDFTFTISSLQPEDIATYYCQQHYSIPFTFGQGTKLEIKRTVAAPSVFIFPPSDEQLKSGTASVVCLLNNFYPREAKVQWKVDNALQSGNSQESVTEQDSKDSTYSLSSTLTLSKADYEKHKVYACEVTHQGLSSPVTKSFNRGEC
7 | 0.353 | 0.44 |  |  | sLAG3-G12-mPDL1HCv1 (bispecific antibody) heavy: EVQLVESGGGLVQPGGSLRLSCAASGYTVSSYCMGWFRQAPGKGREGVSAIDSDGSVSYADSVKGRFTISKDNSKNTLYLQMNSLRAEDTAVYFCAADLCWVDQDQGEYNTWGQGTLVTVSSGGGGSGGGGSGSEVQLVQSGAEVKKPGASVKVSCKASGYIFTGYGITWVRQAPGQGLEWMGEIFPRRVQTYYSEKFKGRVTMTTDTSTSTAYMELRSLRSDDTAVYYCARDYDPYFALDYWGQGTTVTVSSASTKGPSVFPLAPSSKSTSGGTAALGCLVKDYFPEPVTVSWNSGALTSGVHTFPAVLQSSGLYSLSSVVTVPSSSLGTQTYICNVNHKPSNTKVDKKV[letters of human IgG1 Fc with changes not shown] light: DIQMTQSPSSLSASVGDRVTITCRASQDVSTAVDWYQQKPGKAPKLLIYSASYRYTGVPDRFSGSGSGTDFTFTISSLQPEDIATYYCQQHYSIPFTFGQGTKLEIKRTVAAPSVFIFPPSDEQLKSGTASVVCLLNNFYPREAKVQWKVDNALQSGNSQESVTEQDSKDSTYSLSSTLTLSKADYEKHKVYACEVTHQGLSSPVTKSFNRGEC
8 | 0.239 | 0.535 | 0.119 | 0.697 | sLAG3-E-mPDL1LCv1-HCv1 (bispecific antibody) light: EVQLVESGGGLVQPGGSLRLSCAASGYTVSSYCMGWFRQAPGKGREGVSAIDSDGSVSYADSVKGRFTISKDNSKNTLYLQMNSLRAEDTAVYFCAADLCWVDQDQGEYNTWGQGTLVTVSSEPKSSDKTHTSPPSPDIQMTQSPSSLSASVGDRVTITCRASQDVSTAVDWYQQKPGKAPKLLIYSASYRYTGVPDRFSGSGSGTDFTFTISSLQPEDIATYYCQQHYSIPFTFGQGTKLEIKRTVAAPSVFIFPPSDEQLKSGTASVVCLLNNFYPREAKVQWKVDNALQSGNSQESVTEQDSKDSTYSLSSTLTLSKADYEKHKVYACEVTHQGLSSPVTKSFNRGEC heavy: EVQLVQSGAEVKKPGASVKVSCKASGYIFTGYGITWVRQAPGQGLEWMGEIFPRRVQTYYSEKFKGRVTMTTDTSTSTAYMELRSLRSDDTAVYYCARDYDPYFALDYWGQGTTVTVSSASTKGPSVFPLAPSSKSTSGGTAALGCLVKDYFPEPVTVSWNSGALTSGVHTFPAVLQSSGLYSLSSVVTVPSSSLGTQTYICNVNHKPSNTKVDKKV[letters of human IgG1 Fc with changes not shown]
